In PubChem BioAssay AID1508642 (National Center for Advancing Translational Sciences (NCATS), 2021):
Hit rate of the full screen: of about 43,000 compounds, about 200 (0.47%) were called active. Inconclusive results (about 12%) are left out. The call rests on the fitted dose curve; in most records, active means well fitted cell-killing curve with a large enough effect; inconclusive means small, poorly fitted or top-dose-only effect, or effect the other way; inactive means flat fitted curve, though single readings scatter. The list shows a part of the results.

Assay: Cell viability qHTS assay in S16 Pmp22-F2sN cells; further: nearly all actives have a fitted effect of over 65% in size
Settings: S16 Pmp22-F2sN Schwann cells viability, CellTiter-Glo, 24 h; series mostly up to 57.5 µM; activity change, negative = cytotoxicity: at the top concentration
In short: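 S16 Pmp22-F2sN Schwann cells (500-1,000/well) in phenol-red-free DMEM with 10% FBS received 23 nL compound by pin tool for 24 h at 37 °C. Viability was then read as CellTiter-Glo luminescence after 15 min at room temperature.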
On the % scale 0 is the no-effect control and ±100 the full control effect.

| Structure (SMILES) | activity change, negative = cytotoxicity |
| --- | --- |
| COc1ccc2[nH]cc(CCNC(=O)Nc3cccc(F)c3)c2c1 | inactive: -16.1% |
| Cc1cccc(NC(=O)CSC2=Nc3ccccc3C3=NC(CCC(=O)NCc4ccc(F)cc4)C(=O)N23)c1 (configuration not stated) | inactive: -20.4% |
| CC(=O)c1ccc(NS(=O)(=O)c2cnc(N)nc2)cc1 | inactive: 12.3% |
| CC(=O)c1cccc(Nc2ncnc3c2cnn3C)c1 | inactive: -0.788% |
| CCOc1ccccc1NC(=O)Cc1csc(COc2cccc(C)c2)n1 | inactive: 10.7% |
| CC1CCN(S(=O)(=O)c2ccc(C(=O)Nc3nc4ccc(F)cc4s3)cc2)CC1 | inactive: 0.722% |
| COC(=O)c1c(NC(=O)COc2c(C)cccc2C)sc2c1CCCC2 | inactive: -3.78% |
| O=C(NCC(c1ccc2c(c1)OCO2)N1CCN(c2ccc(F)cc2)CC1)c1cccc([N+](=O)[O-])c1 (configuration not stated) | inactive: -12.5% |
| Cc1ccc2onc(CNC(=O)Nc3ccccc3C#N)c2c1 | inactive: -3.84% |
| CCOc1ccc(C2C(C(=O)OC)=C(C)NC3=C2C(=O)c2ccccc23)cc1OC (configuration not stated) | inactive: -10.1% |
| CCc1ccc(NC(=O)C2CCCN(c3nn4cc(-c5ccc(OC)cc5)nc4s3)C2)cc1 (configuration not stated) | inactive: 0.955% |
| O=C(Nc1ccc(F)cc1Cl)C1CCN(c2ncnc3c2nc2n3CCCCC2)CC1 | inactive: -24.7% |
| CN(C1CCCCC1)S(=O)(=O)c1ccc2c(c1)c(=O)c(C(=O)NCc1ccccc1Cl)cn2C | inactive: 6.32% |
| COc1cccc(CNC(=O)CCc2c(C)nc3c(c2C)c(=O)n(C)c(=O)n3C)c1 | inactive: 6.98% |
| CCc1ccccc1NC(=O)CSc1ncccc1C(=O)O | inactive: 5.91% |
| COc1ccc(Nc2ncnc3c2c(-c2ccccc2)cn3-c2ccc(C)c(Cl)c2)cc1OC | inactive: 17.4% |
| COCCOC(=O)c1c(C)oc2c1cc(NS(=O)(=O)c1ccc(Cl)c(C)c1)c1ccccc12 | inactive: -28.5% |
| Cc1c(-c2cccc(NC(=O)c3ccc(F)c(F)c3)c2)nc2ncccn12 | inactive: -14.8% |
| Cc1nn(C)c2c1c(C(F)(F)F)cc(=O)n2C(C)C(=O)NCCc1ccc(Cl)cc1 (configuration not stated) | inactive: 0.655% |
| CNS(=O)(=O)c1ccc(NC(=O)c2cnn3c(C(F)F)cc(-c4ccccc4)nc23)cc1 | inactive: -0.132% |
| CCOC(=O)c1cnc2c(Cl)c(Cl)ccc2c1NCCN1CCOCC1 | inactive: 3.01% |

| Structure (SMILES) | activity change, negative = cytotoxicity |
| --- | --- |
| CCOC(=O)Cc1ccc(NC(=O)n2ncc3cc(Cl)ccc32)cc1 | inactive: -10.9% |
| Cc1ccc(Oc2coc3cc(OCC(=O)NC4CCCCC4)ccc3c2=O)cc1 | inactive: 21.4% |
| N#Cc1ccc(C(=O)Nc2ccccc2-c2nc3ccccc3s2)c(F)c1 | inactive: 3.53% |
| COc1ccc(OCc2ccc(-c3nc(C#N)c(NCc4ccccc4)o3)o2)cc1 | inactive: -14.9% |
| COc1ccc2c(c1)CC(C(=O)Nc1cccc(C)c1C)CO2 (configuration not stated) | inactive: 2.51% |
| CC(C)c1ccc(NC(=O)C2CCCN(S(=O)(=O)c3cccc4nsnc34)C2)cc1 (configuration not stated) | inactive: -1.96% |
| COc1ccc(Cn2ccnc2SCC(=O)NC2CCCC2)cc1 | inactive: -1.21% |
| CC(CCc1ccccc1)NC(=O)Cn1c(=O)nc(-c2ccccc2F)c2cc(Cl)ccc21 (configuration not stated) | inactive: 17.7% |
| Cc1oc(-c2ccccc2F)nc1CSCC(=O)NCc1ccccc1 | inactive: -1.7% |
| Cc1cccc(C)c1NC(=O)CSc1ncc2c(n1)-c1ccc(Cl)cc1N(Cc1ccccc1)S2(=O)=O | inactive: -25% |
| CCOC(=O)Cn1c(=O)n(C2CCCCC2)c2nc(-c3ccc(OCC)cc3)nc(C(N)=O)c21 | inactive: 20.2% |
| COc1ccc(C2CC(=O)c3cnc4c(-c5ccccc5)c(C)nn4c3C2)cc1OC (configuration not stated) | inactive: -9.02% |
| O=C(CSc1nccn1-c1ccc(Cl)cc1)Nc1cccc2ccccc12 | inactive: -0.358% |
| COC(=O)c1ccc(NS(=O)(=O)c2c(C)nc3sccn3c2=O)cc1 | inactive: -2.28% |
| COc1cccc(-n2ccnc2SCC(=O)Nc2ccc(Cl)c(Cl)c2)c1 | inactive: 3.13% |
| O=c1c(=O)n(-c2ccccc2)ccn1Cc1cccc(C(F)(F)F)c1 | inactive: -5.2% |
| Cc1ccc(NC(=O)c2cc3nc(-c4ccc5c(c4)OCO5)cc(C(F)(F)F)n3n2)cc1Cl | inactive: 16.6% |
| O=C(NCc1ccc(F)cc1)c1ccc(CS(=O)Cc2ccc(Cl)cc2)o1 (configuration not stated) | inactive: -1.31% |
| Oc1c(C(c2ccccc2)N2CCN(c3cccc(Cl)c3)CC2)sc2nc(-c3ccco3)nn12 (configuration not stated) | inactive: -2.29% |
| Cc1c(C(=O)Nc2ccccc2Cl)sc2ncnc(N(C)C3CCCCC3)c12 | inactive: -0.423% |
| COc1cc(Cl)c(NC(=O)c2cc(CN3CCCC3)on2)c(OC)c1 | inactive: 18.1% |

| Structure (SMILES) | activity change, negative = cytotoxicity |
| --- | --- |
| Cc1ccc(N2CC(c3nnc(Cc4ccc(F)cc4)o3)CC2=O)cc1 (configuration not stated) | inactive: 7.22% |
| COc1ccccc1CNS(=O)(=O)c1cc(Br)cc2c1N(C(C)=O)C(C)C2 (configuration not stated) | inactive: 7.43% |
| O=C1COc2ccc(-c3cc(-c4ccc(F)cc4)c4c(n3)-c3cc(Cl)ccc3OC4)cc2N1 | inactive: 12.7% |
| Cc1ccc(NC(=O)c2cccc(N3CCCS3(=O)=O)c2)cc1C | inactive: 6.35% |
| Cc1ccc(NC(=O)[C@H]2O[C@@H]3OC(C)(C)O[C@@H]3[C@H]3OC(C)(C)O[C@H]32)cc1F | inactive: 8.54% |
| CC(C(=O)Nc1ccccc1C(F)(F)F)n1nnc2sc3c(c2c1=O)CCCC3 (configuration not stated) | inactive: 3.51% |
| CSc1nc(Nc2ccc(C)cc2)c(C#N)c(-c2ccccc2)n1 | inactive: -2.03% |
| O=C(NCCn1cc(SCc2ccccc2F)c2ccccc21)c1cccs1 | inactive: 16.6% |
| CCS(=O)(=O)NCC(c1ccco1)N1CCN(c2ccccc2)CC1 (configuration not stated) | inactive: -3.17% |
| CCN1CCN(c2ncc3c(n2)CCN(Cc2sccc2C)C3)CC1 | inactive: -17.4% |
| CCOc1ccc(Nc2nc(C)c(NC(=O)c3ccc(C)cc3)c(Nc3ccc(OCC)cc3)n2)cc1 | inactive: -9.86% |
| COc1cc(NC(=O)CC(C)S(=O)(=O)c2ccc3c(c2)CCN3C(C)=O)cc(OC)c1OC (configuration not stated) | inactive: 2.28% |
| Cc1ccccc1NC(=O)C(=O)NCC1(c2ccccc2)CCCC1 | inactive: 11.4% |
| COc1ccc(Cl)cc1NC(=O)c1cnc(SC)nc1-c1ccccc1 | inactive: -2.75% |
| CN(CC(=O)Nc1ccc(Cl)cc1F)S(=O)(=O)c1ccc2c(c1)n(C)c(=O)c(=O)n2C | inactive: 0.84% |
| CCc1ccc(C(c2ccccc2)c2c[nH]c3ccc(C)cc23)s1 (configuration not stated) | inactive: 1.81% |
| CCc1cccc(-n2nnc(-c3nsc(NC(=O)c4ccc(C)cc4)n3)c2C)c1 | inactive: -19.8% |
| Cc1sc2ncn(CC(=O)N3CCN(c4ccccc4)CC3)c(=O)c2c1S(=O)(=O)N1CCN(c2ncccn2)CC1 | inactive: 10.7% |
| Cc1ccc(NC(=O)CN(C)S(=O)(=O)c2cccc3cccnc23)cc1F | inactive: 1.95% |
| CCOC(=O)Cc1ccc(NC(=O)N2CCc3c(sc4c3CCCC4)C2c2ccc(F)cc2)cc1 (configuration not stated) | inactive: -4.56% |
